# Columns and labels:
# [1] = preclinical reproductive toxicity studies; details: in vivo
# [2] = humans, oral administration; cited from earlier work
# [3] = test system: rat collagen-induced arthritis model; experiment: rat collagen-induced arthritis model; details: in vivo
structure (smiles),measurement,setting,value
"CC(C)(C=C(C#N)C(=O)N1CCC[C@@H](n2nc(-c3ccc(Oc4ccccc4)cc3F)c3c(N)ncnc32)C1)N1CCN(C2COC2)CC1 [rilzabrutinib, (R)-2-[3-[4-amino-3-(2-fluoro-4-phenoxy-phenyl)pyrazolo[3,4-d]pyrimidin-1-yl]piperidine-1-carbonyl]-4-methyl-4-[4-(oxetan-3-yl)piperazin-1-yl]pent-2-enenitrile]",harm to fetal development or male fertility,[1],not expected to harm fetal development or male fertility
same,half-life,[2],3 to 4 h
same,anti-inflammatory effects,[3],rapid and significant anti-inflammatory effects

# — patent US20250255874A1, “Methods for Treating Immune Thrombocytopenia By Administering (R)-2-[3-[4-Amino-3-(2-Fluoro-4-Phenoxy-Phenyl)Pyrazolo[3,4-D]Pyrimidin-1-YL]Piperidine-1-Carbonyl]-4-Methyl-4-[4-(Oxetan-3-YL)Piperazin-1-YL]Pent-2-Enentrile” (Principia Biopharma Inc., priority 2022, published 2025)
